The supplement of paper PMC11417369
Some of the results follow.

Each sequence was assayed on PfSIP2 AP2 domain 1 (GST-tagged) (assay: gcPBM binding intensity (ln(normalized median fluorescence intensity)); higher = stronger DNA binding).
Summary of the method: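 The binding buffer was 1× PBS containing 1% milk, 0.2 mg/ml BSA, 0.5% salmon testes DNA and 0.03% Triton X-100. In it, GST-tagged P. falciparum DNA-binding domains expressed in E. coli were applied for 1 h to an Agilent 4 × 180k array of primer-extended double-stranded 36-bp intergenic genomic probes plus negative controls. Binding intensity, read with Alexa488 anti-GST antibody and a 488 nm scan, is the highest Masliner-normalised natural-log median intensity across replicate spots of either probe orientation.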

Compared with CATATATAAATATGTATGCACTTTAACAAAATGTAT, “ATTCCACCTTAAAACTGTACTTTCTCAATCTTTTAT [XGTACX_site796]” is lower in “gcPBM binding intensity (ln)” value: 7.74 for the first, 7.22 for the second.

First: ATATTTATTTATATGTGTACTTATGTTTATATAAAA [XGTACX_site4250]
Second: ATTATGTTATATACACGTACGTGTGCTTTATAATTA [XGTACX_site2728]
The “gcPBM binding intensity (ln)” value of the first is lower: 7.27 for the first, 7.36 for the second.

Compared with “ATAAAGTAGATATTTTGTACGCAGGTTGTATATATT [XGTACX_site1464]”, “TACTTTACTAATATATATAGGAGAGTATACATGAAA [CACACA_negctrl_site63]” is lower in “gcPBM binding intensity (ln)” value: 7.12 for the first, 7.09 for the second.

Going from “GGAATTATAATAAATGGTACACATAAAAAAAAAAAA [XGTACX_site8343]” to “TAATAAATAGGACACACACACATATATATATATTAT [CACACA_site4891]”, the “gcPBM binding intensity (ln)” value rises from 7.05 to 7.33.

Compared with “TTTTTTAAAAGAAAATAAAAAATAAGCATAATATGA [CACACA_negctrl_site1574]”, “AAGGGTTATTTGATATGTACTTATATATATATATAA [XGTACX_site1659]” is higher in “gcPBM binding intensity (ln)” value: 7.06 for the first, 7.2 for the second.

First: AAGGTGGAAACAATTACACACACACTAATAAAAAAA [CACACA_site9051]
Second: AAGTACAAATTTAATAAAAATGAAACAAATATGTAT [TGCATGCA_negctrl_site94]
The “gcPBM binding intensity (ln)” value of the first is lower: 6.94 for the first, 7.06 for the second.

First: ATGGAATTTTTAGAATATGGATAATGTTACTTAAGT [CACACA_negctrl_site494]
Second: AAAAACCATGGGCACACACACATAATATATAATATA [CACACA_site1425]
The “gcPBM binding intensity (ln)” value of the first is lower: 7 for the first, 7.06 for the second.

Compared with “GTTATATATATATATATATATATATATATTTTTTTT [GTGCAC_negctrl_site597]”, “TATATCGTTAATTATACACACATAAAATTAAACTTT [CACACA_site1274]” is lower in “gcPBM binding intensity (ln)” value: 7.92 for the first, 7.23 for the second.

Going from “AAATTAAAAAAGAATATACACACCAAAACTGTTTGT [CACACA_site958]” to “TAAAAAAAGGAAAACATACAATTCTATTTTTCAATA [CACACA_negctrl_site474]”, the “gcPBM binding intensity (ln)” value falls from 6.73 to 6.5.

Compared with “ACCATACATACATACACACACACACGCATATTTATA [CACACA_site7386]”, “TAATTTTAAATATCTTCACACATTATATTTTTATAT [CACACA_site5411]” is lower in “gcPBM binding intensity (ln)” value: 7.69 for the first, 6.89 for the second.

First: TATATAAATAGATACACACATACATACATACATACA [CACACA_site260]
Second: TATAATAATACTTATTGTACGATTAGCTTAATTCGT [XGTACX_site15]
The “gcPBM binding intensity (ln)” value of the first is higher: 8.09 for the first, 6.71 for the second.

First: TTGATATTTTTTTTATGTACACATGTTCATATTTTT [XGTACX_site8095]
Second: TCATCTTTTATATGTTGTACGTATTTTCATTTATAT [XGTACX_site4855]
The “gcPBM binding intensity (ln)” value of the first is lower: 7.06 for the first, 7.22 for the second.

First: ATTTAAAAAAGAAAGGTGCATTTCAATAATGTAAAA [GTGCAC_site9585]
Second: AAGTAGTGTTAATACTGTACTTATATTTTTTATTAT [XGTACX_site8264]
The “gcPBM binding intensity (ln)” value of the first is higher: 11 for the first, 6.92 for the second.

Compared with “TCACATATTATCTTTACACACTATAAATAAGTTTTA [CACACA_site7335]”, “TTTTTTTCTTTTTGAGGTACGCATTATTTTATTTGT [XGTACX_site6996]” is lower in “gcPBM binding intensity (ln)” value: 7.13 for the first, 7.07 for the second.

Compared with “ATAATTTGATGGTTAACACACATATAGATTATAGAT [CACACA_site7200]”, “TGTTATATTTCAAATTGTACTAATCTAATTAATAAA [XGTACX_site604]” is lower in “gcPBM binding intensity (ln)” value: 6.94 for the first, 6.89 for the second.

Going from “TTATTATATATATCTCGTACGTGTATACGCCTACCA [XGTACX_site8375]” to “AAAAAAATGAAACACACACACACATATATATATATA [CACACA_site1043]”, the “gcPBM binding intensity (ln)” value rises from 6.69 to 9.36.

Compared with “AAACAATTACACATATGTATGTATATATATATATAT [TGCATGCA_negctrl_site536]”, “ACAAAGTTTATAGAACGTACATACTTACACATATTT [XGTACX_site556]” is lower in “gcPBM binding intensity (ln)” value: 9.25 for the first, 6.71 for the second.

First: AAAGATTGCGATGGTTGTACTTTTCTATATTTTTTT [XGTACX_site3492]
Second: CTAAAATACGAACACACACACACATATAAATAAATA [CACACA_site7872]
The “gcPBM binding intensity (ln)” value of the first is lower: 6.8 for the first, 7.13 for the second.

First: TATACTTCTTATTAAATGAGTAGTATATATTATATA [TGCATGCA_negctrl_site299]
Second: CTATTTCATAAACACACACACACAAACAAACATATA [CACACA_site8234]
The “gcPBM binding intensity (ln)” value of the first is lower: 6.95 for the first, 7.31 for the second.

First: TTAAAAAATTATTGTAGTACATAGGAAATGAAAAAA [XGTACX_site155]
Second: TAAATTAAATATTATAAACACACATATATATTATTT [CACACA_site8189]
The “gcPBM binding intensity (ln)” value of the first is higher: 7.42 for the first, 6.82 for the second.

Compared with “ATATAAATAAATACAACACACATGTCATATCTAAAT [CACACA_site7533]”, “AAAAAAAAAAAATGAGCACACATAAATAAAAACAAA [CACACA_site8447]” is higher in “gcPBM binding intensity (ln)” value: 6.97 for the first, 7.03 for the second.

Going from “TATATACATAAAATTTGTACATATATATATATATAT [XGTACX_site3214]” to “ATATTATTCTTATATTCACACAGTTTATATTTCCGT [CACACA_site5653]”, the “gcPBM binding intensity (ln)” value falls from 9 to 7.01.

Going from “AAATTACATACACGCGCACACACAAAAAAAAAAAAA [CACACA_site1335]” to “TGGCAAAATAGGCACACACACATATACATATATATT [CACACA_site1059]”, the “gcPBM binding intensity (ln)” value falls from 7.38 to 7.1.

Going from “TATATAATTAAAATAACACACATATATAAAAATATA [CACACA_site2990]” to “ATATTATAGTATATAACACACATTTTTCATAACACT [CACACA_site6331]”, the “gcPBM binding intensity (ln)” value rises from 6.94 to 7.01.

Going from “GTATATATATTTCTTTAATAATTAAATTATAAATAT [CACACA_negctrl_site640]” to “TATTATATCTTATATGTATATTCCCACAAATTATAT [GTGCAC_negctrl_site362]”, the “gcPBM binding intensity (ln)” value falls from 7.01 to 6.94.

First: AATATATAAACACGTACACACACATATATGTATATA [CACACA_site9168]
Second: AATTTAAATATTTGTTGTACGTATTTATATATTCTT [XGTACX_site3623]
The “gcPBM binding intensity (ln)” value of the first is higher: 7.39 for the first, 6.94 for the second.

Going from “CATGCCGTTAAATTATGTACTTATTATTTTAATATG [XGTACX_site4209]” to “ATAATATATAAACACACACACATATATAAATACATT [CACACA_site4466]”, the “gcPBM binding intensity (ln)” value rises from 7.03 to 7.19.

Compared with “ATTTTTGTTATTACATGTACCCATAATTATTATTAA [XGTACX_site3558]”, “ACCGTGGGAGGACACACACACACACCCACATATATA [CACACA_site4339]” is lower in “gcPBM binding intensity (ln)” value: 7.51 for the first, 7.12 for the second.

Compared with “TATTTATATTCCTTTACACACTCCATCTTATATCCA [CACACA_site3604]”, “AACAATTATTTGTCGACACACGTATATGTTATTTAG [CACACA_site5046]” is lower in “gcPBM binding intensity (ln)” value: 7.03 for the first, 6.87 for the second.

First: ACAAAAAAATGAAAAGAAAAAGATATACCCCAATAT [CACACA_negctrl_site509]
Second: AAGAGAAATATATATTGTACAATAATTTTATTTGGT [XGTACX_site7642]
The “gcPBM binding intensity (ln)” value of the first is higher: 7.14 for the first, 6.95 for the second.

Going from “ATATCCATAATAAAAACATGCAACAGAAAAAAAAAA [TGCATGCA_site497]” to “TATATATTAATATTTACACACATGCGCACCCATAAA [CACACA_site2410]”, the “gcPBM binding intensity (ln)” value rises from 7.14 to 12.1.

Compared with “TTCCAAAAAATTATTACACACATATGAGCACATATA [CACACA_site4543]”, “TATTAATTAAAAAAATGTACATAATTATAAATTTTT [XGTACX_site7994]” is lower in “gcPBM binding intensity (ln)” value: 6.94 for the first, 6.82 for the second.

Compared with “TACGGTTGTTTATTTTGTACGTAAAAAATATATTAT [XGTACX_site8393]”, “TAATATACATATATATGTACATATATATATATATAT [XGTACX_site2684]” is higher in “gcPBM binding intensity (ln)” value: 7.5 for the first, 9.16 for the second.

First: ACATAATATACTATTGTGCACATATATATATATATA [GTGCAC_site9761]
Second: GTTAATTTAATTATATGTACGAAAAAATACGTTATA [XGTACX_site1306]
The “gcPBM binding intensity (ln)” value of the first is higher: 9.6 for the first, 7.18 for the second.

First: TTTTTATTTTTTTATTTCTTATCAAATAAAATATAT [XGTACX_negctrl_site537]
Second: TTACAAAAAGGTAATTTACACACTGCATATAGGAAT [CACACA_site8956]
The “gcPBM binding intensity (ln)” value of the first is lower: 6.84 for the first, 7.11 for the second.

Compared with “TCTTAATATGGTAATACACACTAATATACTTTTGTT [CACACA_site4969]”, “ACCCTTCAATTTAATTGTACAAGAAAAAAAAAAAAA [XGTACX_site2927]” is higher in “gcPBM binding intensity (ln)” value: 7.02 for the first, 7.3 for the second.

Going from “TGCTCAAACTTTACAAATGAACGAATATAAAAAAAG [CACACA_negctrl_site541]” to “AAATAATCATAAAATAAACACACATATATAAATATA [CACACA_site7981]”, the “gcPBM binding intensity (ln)” value falls from 7.07 to 6.84.

Going from “ATTCTTTTTTTTTTCTTATATTCTAATCACCACCTT [XGTACX_negctrl_site179]” to “TAAAATTAAATGAAATCATTATTCATTTTTATTTTA [CACACA_negctrl_site1281]”, the “gcPBM binding intensity (ln)” value falls from 7.25 to 6.67.

Compared with “CATATAAATAAACACACACACACATATATATATATA [CACACA_site5309]”, “AATAGGTGCCTTTTTTCACACACATGTCAACTAAAT [CACACA_site8846]” is lower in “gcPBM binding intensity (ln)” value: 9.47 for the first, 9.34 for the second.

First: TTTGGTAAGCGTGTCGCATGTAGAACAAGTCTACAT [TGCATGCA_site577]
Second: ATGAAATTATTATATAAACACACATTTATTTTATTT [CACACA_site8597]
The “gcPBM binding intensity (ln)” value of the first is lower: 6.44 for the first, 6.83 for the second.

Compared with “AGGAACATTTACGCCCCACACACCTACCAACAAAAA [CACACA_site3827]”, “ATTAAAATGGAGTATTAATATGATATATATATATAT [GTGCAC_negctrl_site509]” is higher in “gcPBM binding intensity (ln)” value: 7.25 for the first, 9.32 for the second.

Going from “TAAATACAGACATACACACATACACCCACATATATA [CACACA_site547]” to “TATATATATATTTTTGGTACAGATATTTTCTTCTCT [XGTACX_site4432]”, the “gcPBM binding intensity (ln)” value rises from 7.13 to 8.7.

First: TTACAACCATAAAATGCATGTAAATGACAAAAAAAA [TGCATGCA_site944]
Second: AATATATATATATATTGTACACACATTTATGCATAT [XGTACX_site6856]
The “gcPBM binding intensity (ln)” value of the first is lower: 6.81 for the first, 7.38 for the second.

Going from “ATCATATCCACCAAATGAATAATATAAAATAATATA [XGTACX_negctrl_site193]” to “AAATAACATAATAAGGGTACATTAATTTCGATAATG [XGTACX_site835]”, the “gcPBM binding intensity (ln)” value falls from 7 to 6.83.
